# Measured values reported in PubChem BioAssay AID504374 (National Center for Advancing Translational Sciences (NCATS), 2011).
# Values joined by “and” are separate entries in the source; they are usually repeats but may differ in a detail not shown here. Equal entries are not always repeated. In all, about 1,500 compounds went through this assay and about 100 (6.7%) were called active. Not shown: some 7% with an inconclusive outcome. The call rests on the fitted dose curve; in most records, active means well fitted inhibition curve with a large enough effect; inconclusive means small, poorly fitted or top-dose-only effect, or effect the other way; inactive means flat fitted curve, though single readings scatter. The list shows a part of the results.
# Target: Runt-related transcription factor 1 (Homo sapiens) + Core-binding factor subunit beta (Homo sapiens) (UniProt Q01196+Q13951)
# Chain of UniProt Q01196 (Q01196 whole entry, looked up): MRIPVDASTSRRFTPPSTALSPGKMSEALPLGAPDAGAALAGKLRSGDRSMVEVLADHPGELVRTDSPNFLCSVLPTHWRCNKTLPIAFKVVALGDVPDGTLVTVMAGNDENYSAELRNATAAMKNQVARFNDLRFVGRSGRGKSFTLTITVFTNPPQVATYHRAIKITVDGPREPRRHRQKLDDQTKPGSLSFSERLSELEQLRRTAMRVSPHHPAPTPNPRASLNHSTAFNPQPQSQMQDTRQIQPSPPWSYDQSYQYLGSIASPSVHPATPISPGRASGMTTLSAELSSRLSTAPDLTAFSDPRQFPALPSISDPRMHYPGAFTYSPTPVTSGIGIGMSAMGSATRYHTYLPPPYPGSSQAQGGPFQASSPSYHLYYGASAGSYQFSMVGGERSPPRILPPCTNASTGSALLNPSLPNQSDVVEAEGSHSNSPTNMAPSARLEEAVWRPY
# Chain of UniProt Q01196 (Q13951 whole entry, looked up): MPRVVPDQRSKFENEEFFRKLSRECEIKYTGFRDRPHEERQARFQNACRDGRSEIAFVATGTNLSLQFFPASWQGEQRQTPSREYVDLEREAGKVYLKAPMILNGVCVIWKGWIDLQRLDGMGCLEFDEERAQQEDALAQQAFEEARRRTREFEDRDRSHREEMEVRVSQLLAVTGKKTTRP
# Assay: qHTS Assay for Compounds Blocking the Interaction Between CBF-beta and RUNX1 for the Treatment of Acute Myeloid Leukemia: Hit Validation; further: nearly all actives have a fitted effect of over 60% in size
# Conditions: AlphaScreen CBFb-His/RUNX1-biotin binding; series mostly up to 59.8 µM; activity, negative = inhibition: at the top concentration
# Procedure, shortened: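 Compounds were added to a premixed CBF-beta-His/RUNX1-biotin complex (30 nM each, 20 min) for 15 min. Nickel and streptavidin AlphaScreen beads followed for 90 min at room temperature, with emission at 440 nm […].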
# On the % scale 0 is the no-effect control and ±100 the full control effect; potency means the concentration at half of the fitted maximal effect.
Structure (SMILES),"activity, negative = inhibition",Potency
Cc1ccc(-c2c[n+](CC(=O)Nc3ccccc3C)c3n2CCC3)cc1,inactive: -1.35%,
CC(C)CC(=O)Nc1nnc(CSCc2ccc(F)cc2)s1,inactive: -0.201%,
COc1ccc(C2CN=NC23CCc2ccccc2C3=O)cc1 (centres undefined),inactive: -7.55%,
Cc1cccc(C)c1NC(=S)N/N=C/c1ccc(C(=O)O)cc1,inactive: -14.8%,
c1ccc(-c2n[nH]c(-c3ccccn3)n2)nc1,,active: 1 µM and active: 708 nM
Cc1ccc(Oc2ncccc2N)c2c1CCC2,inactive: -11.1%,
CC(Cc1c[nH]c2ccccc12)C(=O)O (centres undefined),,active: 12.2 µM
Nc1nc(-c2ccccc2)c(N=Nc2ccc(Cl)cc2)s1,,active: 13.7 µM
CC1CCC2(CC1)NC(=S)N(C(C)(C)C)N2 (centres undefined),inactive: -1.9%,
O=C(/C=C/c1ccccc1Cl)Nc1ccccc1,inactive: -0.892%,
CC(C)[C@H](NC(=O)OC(C)(C)C)C(=O)N/N=C/c1ccc2nccnc2c1,inactive: -2.34%,
CCC(=O)Nc1cccc(C(=O)OC)c1,inactive: -8.54%,
COc1ccc(CC(=O)n2[nH]c(=O)ccc2=O)cc1OC,inactive: -9.02%,
O=C1N=C(N2CCc3ccccc3C2)S/C1=C\c1ccc(O)cc1,inactive: -21.5%,
Nc1cc2ccncc2c2ccccc12,inactive: 5.33%,
O=S(=O)(Nc1ccc(C(F)(F)F)cn1)c1ccccc1,inactive: -0.888%,
COC(=O)c1ccc(Cn2nc([N+](=O)[O-])c(Br)c2C)cc1,inactive: -9.01%,
O=C(NCCC1CC1(Cl)Cl)Nc1ccccc1 (centres undefined),inactive: 1.9%,
COc1ccccc1C(=O)N1CCC(N2CCN(c3ccccc3OC)CC2)CC1,inactive: -14.2%,
C/C(O)=C(\C#N)P(=O)(c1ccccc1)c1ccccc1,inactive: 10.4%,

Structure (SMILES),"activity, negative = inhibition",Potency
CCOC(=O)N1CCC(NS(=O)(=O)c2ccc(C#N)cc2)CC1,inactive: -5.68%,
Cc1ccc(OCc2ccc(C(=O)NN)o2)c([N+](=O)[O-])c1,inactive: 1.59%,
COc1ccc(/C=C2\CCc3c2nc2ccccc2c3C(=O)O)cc1OC,inactive: -24.1%,
Cc1cc(C)n(-c2cc(C(C)(C)C)nc3c(-c4ccccc4)cnn23)n1,inactive: 2.38%,
CC(C)(C)OC(=O)N[C@@H](Cc1ccccc1)c1nnc(SCC(N)=O)o1,inactive: -5.88%,
O=C(CCC(=O)N1CCN(c2ccc(O)cc2)CC1)c1cccs1,inactive: 4.81%,
O=C(Nc1ccc(F)cc1)OCCOc1ccc(Br)cc1,inactive: 8.93%,
Nc1c(Cl)ncnc1N/N=C/c1ccncc1,inactive: -3.76%,
CN=c1scc(-c2ccccc2F)n1/N=C/c1ccc(O)c(O)c1O,,active: 6.87 µM
NS(=O)(=O)c1ccc(Sc2ccccn2)c([N+](=O)[O-])c1,inactive: 3.17%,
CC1(C)CCSC(/C=C/c2ccccc2)=N1,inactive: 2.11%,
Nc1nc(NCc2ccco2)nc(NCCO)c1[N+](=O)[O-],inactive: -2.4%,
O=S(=O)(Nc1ccc(Cl)cc1)c1ccc2c(c1)CCO2,inactive: -10.5%,
COc1ccc2c(c1)CCN1C2CCN2C(=O)CCC21 (centres undefined),inactive: -1.49%,
C/C(Cc1nnn(-c2cc(C)on2)n1)=N\O,inactive: -0.472%,
CC(=O)NNC(=S)Nc1cccc(F)c1,inactive: -2.31%,
c1ccc(Nc2nnc(-c3cccc4ccccc34)o2)cc1,inactive: -9.74%,
NNC(=O)c1ccc(COc2ccc3ccccc3c2)o1,inactive: -4.05%,
COc1cccc(/C=N/n2nnnc2N)c1,inactive: -2.12%,
COc1ccc(C(=O)COc2ccc(C)cc2NC(C)=O)cc1,inactive: 2.19%,

Structure (SMILES),"activity, negative = inhibition",Potency
Cc1ccc(Cn2c(N/N=C/c3ccncc3)nc3c2c(=O)n(C)c(=O)n3C)cc1,inactive: -3.34%,
COc1ccccc1C1=NOC(COc2ccc3c(C)cc(=O)oc3c2)C1 (centres undefined),inactive: -3.77%,
C#CCSc1nc(=O)c2cccnc2n1-c1ccc(C)cc1,inactive: 0.897%,
CCCc1cc(=O)c2ccc(OCC(C)=O)cc2o1,inactive: -1.17%,
COC(CNc1ccc([N+](=O)[O-])c(NCC(OC)OC)c1C#N)OC,inactive: -5.85%,
CCNc1ccc([N+](=O)[O-])cc1,inactive: 0.914%,
CCN(CC(=O)Nc1ccc(C(=O)Nc2ccc(OC)cc2)cc1)Cc1nc2ccccc2c(=O)[nH]1,inactive: -13.4%,
Cc1nn2c(NC(C)C)c3c(nc2c1-c1ccccc1)CCC3,inactive: 1.82%,
Oc1cccc(O)c1O,,active: 3.97 µM
Cc1ccc2nc(-c3ccc4c(c3)OCCO4)cn2c1,inactive: -2.93%,
Oc1ccc(Br)cc1/C=N/N1CCN(Cc2cccc3ccccc23)CC1,inactive: -4.26%,
Cc1c(NC(=O)Nc2c(Cl)cccc2Cl)c(=O)n(-c2ccccc2)n1C,inactive: 5.38%,
Cc1ccc(CSc2nnc([C@@H]3CCCN3C(=O)OC(C)(C)C)o2)cc1,inactive: 2.72%,
CCN(CC)CCCN=Cc1c(O)n(-c2ccccc2C)c(=O)c2ccccc12,inactive: -2.99%,
CCN(CC)C(=O)Oc1cc(COC)nc(-c2ccccc2)n1,inactive: 2.72%,
CCOC(=O)c1c2c([nH]c(=S)c1C#N)CCCC2,inactive: -3.85%,
CNC(=O)Nc1cc(NC(=O)NC)cc(C(F)(F)F)c1,inactive: -3.15%,
c1ccc2oc(-c3ccn[nH]3)cc2c1,inactive: -8.71%,
Cn1ncc(Br)c1N1C(=O)CCC1=O,inactive: -2.83%,
